In a compilation of properties of binary mixtures (doi:10.1016/j.jct.2017.07.022):
The densities may have been worked out from excess volumes.

Test: xn = mol fraction of the nth substance listed
Details: 100 kPa

CC[n+]1ccccc1.N#C[N-]C#N + CC(C)O
mass density [kg/m3]
Details	x2 = 0	x2 = 0.1055	x2 = 0.1999	x2 = 0.2997	x2 = 0.4023	x2 = 0.499	x2 = 0.5998	x2 = 0.7006	x2 = 0.8007	x2 = 0.8997
288.15 K	1124.7	1106.7	1089.5	–	1047.4	1022.5	991.9	955.4	911.6	858.2
293.15 K	1121.6	–	1086.3	1067.3	1044.1	1019.2	988.5	951.9	908	854.4
298.15 K	1118.5	1100.4	1083.1	1064.1	–	1015.9	985.1	948.5	904.4	850.6
303.15 K	1115.3	1097.1	1079.9	1060.8	1037.6	1012.6	–	945	900.7	846.7
308.15 K	1112.2	1094	1076.7	1057.6	1034.3	1009.3	978.4	–	897.1	–
313.15 K	–	1090.8	1073.6	1054.4	1031.1	1006.1	–	–	–	839
318.15 K	1105.9	1087.7	1070.4	1051.2	1027.9	1002.8	–	–	889.8	835

CC[n+]1ccccc1.N#C[N-]C#N + CCCO
mass density [kg/m3]
Details	x2 = 0	x2 = 0.1095	x2 = 0.1947	x2 = 0.3011	x2 = 0.4029	x2 = 0.5008	x2 = 0.6003	x2 = 0.702	x2 = 0.8012	x2 = 0.9
288.15 K	1124.7	–	–	1073.1	1051.8	1028.8	1001	966.2	–	874
293.15 K	–	1104	1089.6	–	1048.5	1025.5	997.6	962.7	–	870.3
298.15 K	1118.5	1100.9	1086.4	1066.6	1045.2	–	994.1	959.3	917.8	–
303.15 K	1115.3	1097.7	1083.2	1063.4	–	1018.9	990.8	–	914.2	862.8
308.15 K	1112.2	1094.5	–	1060.2	1038.7	–	987.5	952.4	–	–
313.15 K	1109	1091.3	–	1056.9	1035.4	–	984.1	948.9	907	855.2
318.15 K	–	1088.2	1073.7	1053.8	1032.2	–	980.8	–	903.4	–

CC[n+]1ccccc1.N#C[N-]C#N + CCO
mass density [kg/m3]
Details	x2 = 0	x2 = 0.1008	x2 = 0.1974	x2 = 0.3008	x2 = 0.3994	x2 = 0.5058	x2 = 0.5994	x2 = 0.6996	x2 = 0.7999	x2 = 0.9011
288.15 K	–	–	1098.6	1083.4	1065.3	1042.1	1016.7	982.9	939.2	879.4
293.15 K	1121.6	–	1095.4	1080.2	1062.2	1038.9	1013.5	979.3	935.6	875.5
298.15 K	–	1105.6	–	–	1059.2	1035.8	1010.4	976	–	871.6
303.15 K	1115.3	1102.5	1089.1	1073.8	1055.8	1032.5	1006.9	972.4	928.2	–
308.15 K	1112.2	1099.3	1086	1070.6	1052.7	–	1003.8	969.1	924.6	863.8
313.15 K	1109	1096.1	1082.7	1067.6	–	–	–	–	920.9	859.8
318.15 K	1105.9	–	1079.7	1064.4	–	1023.2	997.6	962.8	917.3	855.9

CC(C)O + CC[n+]1ccccc1.N#C[N-]C#N
x1 = 1
Details	mass density [kg/m3]
288.15 K	789.4
293.15 K	785.3
298.15 K	781.1
303.15 K	776.8
308.15 K	772.5
313.15 K	768
318.15 K	763.5

CCCO + CC[n+]1ccccc1.N#C[N-]C#N
x1 = 1
Details	mass density [kg/m3]
293.15 K	803.6
298.15 K	799.6
303.15 K	795.6
308.15 K	791.5
313.15 K	787.4
318.15 K	783.2

CCO + CC[n+]1ccccc1.N#C[N-]C#N
x1 = 1
Details	mass density [kg/m3]
293.15 K	789.7
298.15 K	785.7
303.15 K	781.1
308.15 K	776.7
313.15 K	772.3
318.15 K	767.9
